# Patent US11178870B2 (priority 2017, dated 2021)
# Columns and labels:
# Assay type in all cases: in vivo
# Botrytis cinerea = assay: Test Example B: Gray mold on tomato; conditions: for Test B control value: Gray mold on tomato; for control value, Test B (gray mold on tomato): Table 7, Test B; for Test B control value (gray mold on tomato): class of control value, Table 7
# Alternaia brassicicola = assay: Test Example C: Alternaria sooty spot on cabbage; conditions: for Test C control value: Alternaria sooty spot on cabbage; for control value, Test C (Alternaria sooty spot on cabbage): Table 7, Test C; for Test C control value (Alternaria sooty spot on cabbage): class of control value, Table 7
# [1] = test system: Blumeria graminis f. sp. hordei; assay: Test Example D: Powdery mildew on barley; conditions: for Test D control value: Powdery mildew on barley; for control value, Test D (powdery mildew on barley): Table 7, Test D; for Test D control value (powdery mildew on barley): class of control value, Table 7
# Puccinia recondita = assay: Test Example E: Brown rust on wheat; conditions: for Test E control value: Brown rust on wheat; for control value, Test E (brown rust on wheat): Table 7, Test E; for Test E control value (brown rust on wheat): class of control value, Table 7
# Plasmopara viticola = assay: Test Example G: Downy mildew on vine; conditions: for Test G control value: Downy mildew on vine, 250 ppm sprayed, 7 to 10 days after inoculation; for Test G control value / Test G control value (downy mildew on vine): 2.5 ml/pot; for control value, Test G (downy mildew on vine): 250 ppm sprayed (2.5 ml/pot) before inoculation, assessed 7 to 10 days after inoculation; for Test G control value (downy mildew on vine): 250 ppm spray, investigated 7 to 10 days after inoculation
smiles,measurement,setting,value
O=c1c(Br)cc(-c2cccnc2Cl)c(-c2c(F)cccc2F)n1CC(F)F [Compound 59],Test B control value,Botrytis cinerea,H (H shows the control value more than 50%)
same,Test C control value,Alternaia brassicicola,H (H shows the control value more than 50%)
same,Test D control value,[1],H (H shows the control value more than 50%)
same,Test E control value,Puccinia recondita,H (H shows the control value more than 50%)
same,Test G control value,Plasmopara viticola,L (L shows the control value of 50% or less)
CCn1c(-c2c(F)cccc2F)c(-c2ccsc2Br)cc(Cl)c1=O [Compound 45],Test B control value,Botrytis cinerea,H (H shows the control value more than 50%)
same,Test C control value,Alternaia brassicicola,H (H shows the control value more than 50%)
same,Test D control value,[1],H (H shows the control value more than 50%)
same,Test E control value,Puccinia recondita,H (H shows the control value more than 50%)
same,Test G control value,Plasmopara viticola,L (L shows the control value of 50% or less)
CCn1c(-c2c(F)cccc2F)c(-c2cnc(N(C)C)o2)cc(Cl)c1=O [Compound 131],Test B control value,Botrytis cinerea,L (L shows the control value of 50% or less)
same,Test C control value,Alternaia brassicicola,H (H shows the control value more than 50%)
same,Test D control value,[1],L (L shows the control value of 50% or less)
same,Test E control value,Puccinia recondita,L (L shows the control value of 50% or less)
same,Test G control value,Plasmopara viticola,L (L shows the control value of 50% or less)
O=c1c(Cl)cc(-n2cc(Cl)cn2)c(-c2ccccc2Br)n1CC(F)F [Compound 290],"control value, Test B (gray mold on tomato)",Botrytis cinerea,L (L shows the control value of 50% or less)
same,"control value, Test C (Alternaria sooty spot on cabbage)",Alternaia brassicicola,H (H shows the control value more than 50%)
same,"control value, Test D (powdery mildew on barley)",[1],H (H shows the control value more than 50%)
same,"control value, Test E (brown rust on wheat)",Puccinia recondita,H (H shows the control value more than 50%)
same,"control value, Test G (downy mildew on vine)",Plasmopara viticola,L (L shows the control value of 50% or less)
O=c1c(Cl)cc(-c2cc(Cl)sc2Br)c(-c2c(F)cccc2F)n1CC(F)F [Compound 349],"control value, Test B (gray mold on tomato)",Botrytis cinerea,H (H shows the control value more than 50%)
same,"control value, Test C (Alternaria sooty spot on cabbage)",Alternaia brassicicola,H (H shows the control value more than 50%)
same,"control value, Test D (powdery mildew on barley)",[1],L (L shows the control value of 50% or less)
same,"control value, Test E (brown rust on wheat)",Puccinia recondita,H (H shows the control value more than 50%)
same,"control value, Test G (downy mildew on vine)",Plasmopara viticola,H (H shows the control value more than 50%)
CCn1c(-c2c(F)cccc2F)c(C2OCCCO2)cc(Cl)c1=O [Compound 11],Test B control value,Botrytis cinerea,L (L shows the control value of 50% or less)
same,Test C control value,Alternaia brassicicola,H (H shows the control value more than 50%)
same,Test D control value,[1],H (H shows the control value more than 50%)
same,Test E control value,Puccinia recondita,H (H shows the control value more than 50%)
same,Test G control value,Plasmopara viticola,L (L shows the control value of 50% or less)
CCn1c(-c2c(F)cccc2Br)c(-n2cc(Cl)cn2)cc(Br)c1=O [Compound 219],"control value, Test B (gray mold on tomato)",Botrytis cinerea,L (L shows the control value of 50% or less)
same,"control value, Test C (Alternaria sooty spot on cabbage)",Alternaia brassicicola,L (L shows the control value of 50% or less)
same,"control value, Test D (powdery mildew on barley)",[1],L (L shows the control value of 50% or less)
same,"control value, Test E (brown rust on wheat)",Puccinia recondita,L (L shows the control value of 50% or less)
same,"control value, Test G (downy mildew on vine)",Plasmopara viticola,H (H shows the control value more than 50%)
CCn1c(-c2c(F)cccc2Cl)c(-n2cc(F)cn2)cc(Cl)c1=O [Compound 379],Test B control value (gray mold on tomato),Botrytis cinerea,H (H shows the control value more than 50%)
same,Test C control value (Alternaria sooty spot on cabbage),Alternaia brassicicola,H (H shows the control value more than 50%)
same,Test D control value (powdery mildew on barley),[1],L (L shows the control value of 50% or less)
same,Test E control value (brown rust on wheat),Puccinia recondita,H (H shows the control value more than 50%)
same,Test G control value (downy mildew on vine),Plasmopara viticola,L (L shows the control value of 50% or less)
CCn1c(-c2c(F)cccc2F)c(-c2sccc2C)cc(Cl)c1=O [Compound 381],Test B control value (gray mold on tomato),Botrytis cinerea,H (H shows the control value more than 50%)
same,Test C control value (Alternaria sooty spot on cabbage),Alternaia brassicicola,H (H shows the control value more than 50%)
same,Test D control value (powdery mildew on barley),[1],H (H shows the control value more than 50%)
same,Test E control value (brown rust on wheat),Puccinia recondita,H (H shows the control value more than 50%)
same,Test G control value (downy mildew on vine),Plasmopara viticola,H (H shows the control value more than 50%)
CCn1c(-c2c(F)cc(F)cc2F)c(-c2ocnc2F)cc(Cl)c1=O [Compound 120],Test B control value,Botrytis cinerea,H (H shows the control value more than 50%)
same,Test C control value,Alternaia brassicicola,H (H shows the control value more than 50%)
same,Test D control value,[1],L (L shows the control value of 50% or less)
same,Test E control value,Puccinia recondita,H (H shows the control value more than 50%)
same,Test G control value,Plasmopara viticola,L (L shows the control value of 50% or less)
CCn1c(-c2ccccc2OC)c(-n2cc(Cl)cn2)cc(Cl)c1=O [Compound 243],"control value, Test B (gray mold on tomato)",Botrytis cinerea,H (H shows the control value more than 50%)
same,"control value, Test C (Alternaria sooty spot on cabbage)",Alternaia brassicicola,H (H shows the control value more than 50%)
same,"control value, Test D (powdery mildew on barley)",[1],L (L shows the control value of 50% or less)
same,"control value, Test E (brown rust on wheat)",Puccinia recondita,H (H shows the control value more than 50%)
same,"control value, Test G (downy mildew on vine)",Plasmopara viticola,L (L shows the control value of 50% or less)
CCn1c(-c2c(F)cc(OC)cc2F)c(-n2cc(F)cn2)ccc1=O [Compound 308],"control value, Test B (gray mold on tomato)",Botrytis cinerea,H (H shows the control value more than 50%)
same,"control value, Test C (Alternaria sooty spot on cabbage)",Alternaia brassicicola,H (H shows the control value more than 50%)
same,"control value, Test D (powdery mildew on barley)",[1],H (H shows the control value more than 50%)
same,"control value, Test E (brown rust on wheat)",Puccinia recondita,H (H shows the control value more than 50%)
same,"control value, Test G (downy mildew on vine)",Plasmopara viticola,L (L shows the control value of 50% or less)
O=c1c(Br)cc(-c2cccnc2Cl)c(-c2c(F)cc(F)cc2F)n1CC(F)F [Compound 69],Test B control value,Botrytis cinerea,H (H shows the control value more than 50%)
same,Test C control value,Alternaia brassicicola,H (H shows the control value more than 50%)
same,Test D control value,[1],H (H shows the control value more than 50%)
same,Test E control value,Puccinia recondita,H (H shows the control value more than 50%)
same,Test G control value,Plasmopara viticola,L (L shows the control value of 50% or less)
CCn1c(-c2ccc(F)cc2C)c(-n2ncc(C)c2Cl)cc(Cl)c1=O [Compound 369],"control value, Test B (gray mold on tomato)",Botrytis cinerea,H (H shows the control value more than 50%)
same,"control value, Test C (Alternaria sooty spot on cabbage)",Alternaia brassicicola,H (H shows the control value more than 50%)
same,"control value, Test D (powdery mildew on barley)",[1],H (H shows the control value more than 50%)
same,"control value, Test E (brown rust on wheat)",Puccinia recondita,H (H shows the control value more than 50%)
same,"control value, Test G (downy mildew on vine)",Plasmopara viticola,L (L shows the control value of 50% or less)
CCn1c(-c2c(F)cccc2F)c(-c2sc(Br)cc2C)ccc1=O [Compound 386],Test B control value (gray mold on tomato),Botrytis cinerea,H (H shows the control value more than 50%)
same,Test C control value (Alternaria sooty spot on cabbage),Alternaia brassicicola,H (H shows the control value more than 50%)
same,Test D control value (powdery mildew on barley),[1],H (H shows the control value more than 50%)
same,Test E control value (brown rust on wheat),Puccinia recondita,H (H shows the control value more than 50%)
same,Test G control value (downy mildew on vine),Plasmopara viticola,L (L shows the control value of 50% or less)
CCn1c(-c2ccccc2Br)c(-n2cc(F)cn2)ccc1=O [Compound 356],"control value, Test B (gray mold on tomato)",Botrytis cinerea,H (H shows the control value more than 50%)
same,"control value, Test C (Alternaria sooty spot on cabbage)",Alternaia brassicicola,H (H shows the control value more than 50%)
same,"control value, Test D (powdery mildew on barley)",[1],H (H shows the control value more than 50%)
same,"control value, Test E (brown rust on wheat)",Puccinia recondita,H (H shows the control value more than 50%)
same,"control value, Test G (downy mildew on vine)",Plasmopara viticola,L (L shows the control value of 50% or less)
O=c1ccc(-c2cc(Br)sc2Br)c(-c2c(F)cccc2F)n1CC(F)F [Compound 324],"control value, Test B (gray mold on tomato)",Botrytis cinerea,L (L shows the control value of 50% or less)
same,"control value, Test C (Alternaria sooty spot on cabbage)",Alternaia brassicicola,L (L shows the control value of 50% or less)
same,"control value, Test D (powdery mildew on barley)",[1],L (L shows the control value of 50% or less)
same,"control value, Test E (brown rust on wheat)",Puccinia recondita,L (L shows the control value of 50% or less)
same,"control value, Test G (downy mildew on vine)",Plasmopara viticola,H (H shows the control value more than 50%)
O=c1c(Br)cc(-n2cc(Cl)cn2)c(-c2ccc(F)cc2Br)n1CC(F)F [Compound 275],"control value, Test B (gray mold on tomato)",Botrytis cinerea,H (H shows the control value more than 50%)
same,"control value, Test C (Alternaria sooty spot on cabbage)",Alternaia brassicicola,H (H shows the control value more than 50%)
same,"control value, Test D (powdery mildew on barley)",[1],H (H shows the control value more than 50%)
same,"control value, Test E (brown rust on wheat)",Puccinia recondita,H (H shows the control value more than 50%)
same,"control value, Test G (downy mildew on vine)",Plasmopara viticola,L (L shows the control value of 50% or less)
O=c1ccc(-c2sc(Cl)cc2Cl)c(-c2c(F)cccc2F)n1CC(F)F [Compound 438],Test B control value (gray mold on tomato),Botrytis cinerea,L (L shows the control value of 50% or less)
same,Test C control value (Alternaria sooty spot on cabbage),Alternaia brassicicola,H (H shows the control value more than 50%)
same,Test D control value (powdery mildew on barley),[1],H (H shows the control value more than 50%)
same,Test E control value (brown rust on wheat),Puccinia recondita,H (H shows the control value more than 50%)
same,Test G control value (downy mildew on vine),Plasmopara viticola,L (L shows the control value of 50% or less)
O=c1c(Cl)cc(-n2cc(F)cn2)c(-c2ccc(F)cc2F)n1CC(F)F [Compound 285],"control value, Test B (gray mold on tomato)",Botrytis cinerea,H (H shows the control value more than 50%)
same,"control value, Test C (Alternaria sooty spot on cabbage)",Alternaia brassicicola,H (H shows the control value more than 50%)
same,"control value, Test D (powdery mildew on barley)",[1],H (H shows the control value more than 50%)
same,"control value, Test E (brown rust on wheat)",Puccinia recondita,H (H shows the control value more than 50%)
same,"control value, Test G (downy mildew on vine)",Plasmopara viticola,L (L shows the control value of 50% or less)
Cn1c(-c2ccc(F)cc2Cl)c(-n2cc(Cl)cn2)cc(Br)c1=O [Compound 453],Test B control value (gray mold on tomato),Botrytis cinerea,H (H shows the control value more than 50%)
same,Test C control value (Alternaria sooty spot on cabbage),Alternaia brassicicola,H (H shows the control value more than 50%)
same,Test D control value (powdery mildew on barley),[1],L (L shows the control value of 50% or less)
same,Test E control value (brown rust on wheat),Puccinia recondita,H (H shows the control value more than 50%)
same,Test G control value (downy mildew on vine),Plasmopara viticola,L (L shows the control value of 50% or less)
